The text below walks through data of PMC4617706.

Amino acid sequences for entries named in this document (tags omitted). A change or cut given only in a name is not applied to a line headed by its entry. Chains listed by the source or under a name are the forms on record and can include a tag or linker.
UniProt Q9NVP4: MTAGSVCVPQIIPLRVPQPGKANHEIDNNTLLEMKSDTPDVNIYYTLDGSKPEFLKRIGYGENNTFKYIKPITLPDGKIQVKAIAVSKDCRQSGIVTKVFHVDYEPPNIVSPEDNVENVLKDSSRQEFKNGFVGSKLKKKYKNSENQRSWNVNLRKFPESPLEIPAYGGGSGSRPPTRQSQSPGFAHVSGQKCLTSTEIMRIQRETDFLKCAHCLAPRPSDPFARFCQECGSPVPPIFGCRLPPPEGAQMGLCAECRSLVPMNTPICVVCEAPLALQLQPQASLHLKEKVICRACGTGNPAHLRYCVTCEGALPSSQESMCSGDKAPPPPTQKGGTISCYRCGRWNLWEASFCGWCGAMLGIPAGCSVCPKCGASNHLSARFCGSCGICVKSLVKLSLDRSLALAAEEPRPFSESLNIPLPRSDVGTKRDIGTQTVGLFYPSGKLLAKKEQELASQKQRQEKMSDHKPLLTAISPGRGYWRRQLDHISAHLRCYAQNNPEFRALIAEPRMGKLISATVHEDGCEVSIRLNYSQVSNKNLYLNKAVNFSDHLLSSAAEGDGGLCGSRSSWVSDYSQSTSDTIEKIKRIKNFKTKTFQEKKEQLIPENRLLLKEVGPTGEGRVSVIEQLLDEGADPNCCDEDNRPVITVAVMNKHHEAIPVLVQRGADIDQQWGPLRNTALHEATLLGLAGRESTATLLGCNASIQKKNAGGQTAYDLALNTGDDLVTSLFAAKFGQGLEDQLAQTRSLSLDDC
UniProt Q5S007: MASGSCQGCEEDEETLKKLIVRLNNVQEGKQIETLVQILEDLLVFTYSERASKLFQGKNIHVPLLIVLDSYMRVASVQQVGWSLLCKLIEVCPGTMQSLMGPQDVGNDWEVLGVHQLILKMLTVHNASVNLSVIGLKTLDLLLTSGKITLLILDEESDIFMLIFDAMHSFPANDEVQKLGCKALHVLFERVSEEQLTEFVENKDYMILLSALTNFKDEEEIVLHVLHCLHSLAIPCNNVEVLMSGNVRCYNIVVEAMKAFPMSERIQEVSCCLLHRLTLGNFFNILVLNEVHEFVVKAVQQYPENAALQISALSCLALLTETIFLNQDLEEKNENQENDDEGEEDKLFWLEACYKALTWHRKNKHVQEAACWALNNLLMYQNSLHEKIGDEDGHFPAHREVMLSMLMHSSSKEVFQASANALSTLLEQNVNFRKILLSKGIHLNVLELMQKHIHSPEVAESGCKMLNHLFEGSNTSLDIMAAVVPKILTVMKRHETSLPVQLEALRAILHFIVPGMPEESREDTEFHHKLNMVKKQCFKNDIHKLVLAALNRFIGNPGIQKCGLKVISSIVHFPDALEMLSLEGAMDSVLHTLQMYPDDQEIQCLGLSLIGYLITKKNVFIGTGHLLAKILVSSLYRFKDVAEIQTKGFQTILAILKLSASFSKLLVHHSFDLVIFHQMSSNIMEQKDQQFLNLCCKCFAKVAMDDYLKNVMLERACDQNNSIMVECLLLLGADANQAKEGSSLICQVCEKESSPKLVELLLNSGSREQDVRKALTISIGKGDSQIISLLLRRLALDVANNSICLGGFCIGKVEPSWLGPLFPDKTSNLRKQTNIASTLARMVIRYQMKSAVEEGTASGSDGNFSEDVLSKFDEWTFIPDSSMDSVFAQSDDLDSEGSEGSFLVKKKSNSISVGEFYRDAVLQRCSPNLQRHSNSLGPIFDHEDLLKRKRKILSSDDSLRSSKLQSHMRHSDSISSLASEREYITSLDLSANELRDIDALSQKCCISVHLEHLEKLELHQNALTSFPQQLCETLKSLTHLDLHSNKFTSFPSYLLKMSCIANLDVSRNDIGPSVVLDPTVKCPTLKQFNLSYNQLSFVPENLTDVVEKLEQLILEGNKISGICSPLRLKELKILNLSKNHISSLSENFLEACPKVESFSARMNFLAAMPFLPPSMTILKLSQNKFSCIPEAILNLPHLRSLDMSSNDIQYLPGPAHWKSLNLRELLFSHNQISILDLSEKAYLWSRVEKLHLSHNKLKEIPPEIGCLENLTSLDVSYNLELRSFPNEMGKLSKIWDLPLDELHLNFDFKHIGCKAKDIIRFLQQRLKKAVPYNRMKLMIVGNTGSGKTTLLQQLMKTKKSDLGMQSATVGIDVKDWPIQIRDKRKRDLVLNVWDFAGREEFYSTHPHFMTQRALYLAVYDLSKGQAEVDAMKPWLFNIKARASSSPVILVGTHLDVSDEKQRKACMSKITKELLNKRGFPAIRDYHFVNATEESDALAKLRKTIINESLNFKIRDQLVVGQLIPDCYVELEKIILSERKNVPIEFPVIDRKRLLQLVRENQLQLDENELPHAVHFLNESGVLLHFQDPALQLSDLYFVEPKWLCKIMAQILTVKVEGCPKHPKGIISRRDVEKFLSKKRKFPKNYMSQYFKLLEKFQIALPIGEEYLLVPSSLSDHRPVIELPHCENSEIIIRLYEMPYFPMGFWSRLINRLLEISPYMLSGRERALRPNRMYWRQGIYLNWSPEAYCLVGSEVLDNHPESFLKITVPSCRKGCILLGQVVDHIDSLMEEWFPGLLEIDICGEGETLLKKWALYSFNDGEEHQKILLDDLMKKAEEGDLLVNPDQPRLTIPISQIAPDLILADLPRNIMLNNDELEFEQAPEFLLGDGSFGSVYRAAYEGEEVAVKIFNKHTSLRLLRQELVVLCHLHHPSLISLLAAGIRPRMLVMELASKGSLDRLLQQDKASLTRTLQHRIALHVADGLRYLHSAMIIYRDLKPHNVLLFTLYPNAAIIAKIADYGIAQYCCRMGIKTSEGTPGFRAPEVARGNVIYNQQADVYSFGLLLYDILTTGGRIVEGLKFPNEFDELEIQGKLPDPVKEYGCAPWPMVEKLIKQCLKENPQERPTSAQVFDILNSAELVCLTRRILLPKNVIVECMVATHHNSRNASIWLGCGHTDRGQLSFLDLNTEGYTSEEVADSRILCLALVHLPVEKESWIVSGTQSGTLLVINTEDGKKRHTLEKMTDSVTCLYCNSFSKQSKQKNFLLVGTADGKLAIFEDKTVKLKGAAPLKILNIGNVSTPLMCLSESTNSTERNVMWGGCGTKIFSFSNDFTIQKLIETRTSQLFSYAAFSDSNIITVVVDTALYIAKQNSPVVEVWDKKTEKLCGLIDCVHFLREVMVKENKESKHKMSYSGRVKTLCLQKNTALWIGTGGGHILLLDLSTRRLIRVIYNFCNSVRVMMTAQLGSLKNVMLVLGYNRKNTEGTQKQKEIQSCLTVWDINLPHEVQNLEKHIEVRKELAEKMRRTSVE
full length HA-tagged NINL^isoB (Q9Y2I6-2, form named): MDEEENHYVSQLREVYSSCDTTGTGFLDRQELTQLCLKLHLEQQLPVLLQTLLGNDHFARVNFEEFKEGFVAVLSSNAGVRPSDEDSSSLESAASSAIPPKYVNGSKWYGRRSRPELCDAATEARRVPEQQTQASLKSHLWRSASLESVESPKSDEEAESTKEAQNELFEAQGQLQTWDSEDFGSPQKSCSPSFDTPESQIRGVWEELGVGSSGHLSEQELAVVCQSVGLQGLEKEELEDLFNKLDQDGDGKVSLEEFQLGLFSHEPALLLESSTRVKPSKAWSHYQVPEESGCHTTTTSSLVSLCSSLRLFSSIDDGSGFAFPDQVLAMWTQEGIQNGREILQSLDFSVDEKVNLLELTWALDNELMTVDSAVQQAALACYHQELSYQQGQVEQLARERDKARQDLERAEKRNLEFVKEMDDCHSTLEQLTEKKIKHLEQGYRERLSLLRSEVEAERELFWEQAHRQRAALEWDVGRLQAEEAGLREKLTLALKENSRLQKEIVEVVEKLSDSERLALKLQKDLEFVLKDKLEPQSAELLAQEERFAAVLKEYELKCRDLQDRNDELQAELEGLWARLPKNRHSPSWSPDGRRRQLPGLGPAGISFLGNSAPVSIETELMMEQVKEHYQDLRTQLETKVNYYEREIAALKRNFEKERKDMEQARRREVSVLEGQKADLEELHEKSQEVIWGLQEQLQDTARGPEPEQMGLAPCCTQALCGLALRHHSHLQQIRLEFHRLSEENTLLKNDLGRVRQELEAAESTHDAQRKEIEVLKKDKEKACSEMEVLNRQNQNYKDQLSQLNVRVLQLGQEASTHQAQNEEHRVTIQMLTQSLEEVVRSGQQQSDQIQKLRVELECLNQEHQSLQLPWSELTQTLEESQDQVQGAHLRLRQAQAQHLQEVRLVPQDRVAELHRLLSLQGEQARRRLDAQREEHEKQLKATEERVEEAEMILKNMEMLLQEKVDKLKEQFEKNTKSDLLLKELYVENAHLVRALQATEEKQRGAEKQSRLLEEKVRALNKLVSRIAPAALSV
GST-fused NINL^isoB_538-825aa (Q9Y2I6-2, form named): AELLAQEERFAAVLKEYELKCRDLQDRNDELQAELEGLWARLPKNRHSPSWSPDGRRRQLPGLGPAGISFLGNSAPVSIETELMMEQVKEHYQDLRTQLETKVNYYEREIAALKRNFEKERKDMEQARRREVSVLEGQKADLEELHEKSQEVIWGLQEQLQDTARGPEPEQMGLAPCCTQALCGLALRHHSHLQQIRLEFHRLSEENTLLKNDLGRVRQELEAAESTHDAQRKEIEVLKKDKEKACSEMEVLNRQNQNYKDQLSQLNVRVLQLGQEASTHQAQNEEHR
UniProt P63167: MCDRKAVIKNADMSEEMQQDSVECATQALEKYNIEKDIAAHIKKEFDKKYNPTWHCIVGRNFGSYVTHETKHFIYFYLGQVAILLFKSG

For assay [1], the target named is full-length Strep/FLAG-tagged DZANK1 (human) (UniProt Q9NVP4). Put plainly: co-IP; HEK293T co-transfected; reciprocal IP with anti-FLAG antibodies; immunoblot.
Another assay has as its target FLAG-tagged LRRK2 (UniProt Q5S007). The description is as above.
Assay [2] addresses full length HA-tagged NINL^isoB (human) (UniProt Q9Y2I6). Put plainly: co-IP; HEK293T co-transfected; IP with anti-HA antibodies, ProtA/G beads; lysis buffer 50 mM Tris-HCl pH 7.5, 150 mM NaCl, 1% Triton-X-100; 4°C overnight; immunoblot. (In general: In western blotting, separated proteins are transferred to a membrane and probed.)
In another assay the target is HA-tagged DYNLL1 (UniProt P63167). The description is as above.
The target of assay [3] is GST-fused NINL^isoB_538-825aa (human) (UniProt Q9Y2I6). As to the kind of experiment: pull-down; GST fusion as bait; Strep/FLAG-tagged DZANK1 from HEK293T cell lysate; immunoblot; only the target purified.

These are yes or no findings as the source states them, for the method shown. Binding seen in cells or lysates may run through a third protein. Some results given as binding are weak or reduced against the parent protein; the word gives no strength.

Turning to “full length HA-tagged NINL^isoB (from UniProt Q9Y2I6-2 1-1033)”, the binding entry is “binds” in assay [1] and “no binding” with FLAG-tagged LRRK2.
As to “HA-tagged DYNLL1 (from UniProt P63167 1-89)”, the binding entry with FLAG-tagged LRRK2 is “no binding”.
For “FLAG-tagged LRRK2 (from UniProt Q5S007 1-2527)”, the binding entry (in assay [2]; with HA-tagged DYNLL1) was “no binding” in each case.
On to “full-length Strep/FLAG-tagged DZANK1 (from UniProt Q9NVP4 1-752)”, for which the binding result in assay [3] and in assay [2] was “binds” in each case.
